# This is one part of the list.
# Experiments:
# Assay in all cases: glycan array binding signal (z-score within array); higher = stronger binding
# Settings in all cases: glycan notation: IUPAC condensed, linker removed
# [1] = molecular target: Neu5Ac(a2-6)GlcNAc(b1-4)GlcNAc
# Summary of the method: (§1)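 Arrays were curated from the Consortium for Functional Glycomics database, 3228 in total, and kept only where the protein sequence was available. Binding is expressed as a within-array Z-score. This score was averaged across arrays of the same protein sequence at different concentrations or buffers and across linkers, and negative values can be read as non-binding.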
# [2] = molecular target: Neu5Ac(a2-6)GlcNAc(b1-4)GlcNAc(b1-4)GlcNAc
# Summary of the method: as §1
# [3] = molecular target: Neu5Ac(a2-8)Neu5Ac
# Summary of the method: as §1
# [4] = molecular target: Neu5Ac(a2-8)Neu5Ac(a2-3)Gal(b1-3)GalNAc(b1-4)[Neu5Ac(a2-3)]Gal(b1-4)Glc
# Summary of the method: as §1
# [5] = molecular target: Neu5Ac(a2-8)Neu5Ac(a2-3)Gal(b1-3)GalNAc(b1-4)[Neu5Ac(a2-8)Neu5Ac(a2-3)]Gal(b1-4)Glc
# Summary of the method: as §1
# [6] = molecular target: Neu5Ac(a2-8)Neu5Ac(a2-3)Gal(b1-4)Glc
# Summary of the method: as §1
# [7] = molecular target: Neu5Ac(a2-8)Neu5Ac(a2-3)Gal(b1-4)GlcNAc
# Summary of the method: as §1
# [8] = molecular target: Neu5Ac(a2-8)Neu5Ac(a2-3)[Gal(b1-3)GalNAc(b1-4)]Gal(b1-4)Glc
# Summary of the method: as §1
# [9] = molecular target: Neu5Ac(a2-8)Neu5Ac(a2-3)[GalNAc(b1-4)]Gal(b1-4)Glc
# Summary of the method: as §1
# [10] = molecular target: Neu5Ac(a2-8)Neu5Ac(a2-8)Neu5Ac
# Summary of the method: as §1
# [11] = molecular target: Neu5Ac(a2-8)Neu5Ac(a2-8)Neu5Ac(a2-3)Gal(b1-4)Glc
# Summary of the method: as §1
# [12] = molecular target: Neu5Ac(a2-8)Neu5Ac(a2-8)Neu5Ac(a2-3)[Gal(b1-3)GalNAc(b1-4)]Gal(b1-4)Glc
# Summary of the method: as §1
# [13] = molecular target: Neu5Ac(a2-8)Neu5Ac(a2-8)Neu5Ac(a2-3)[GalNAc(b1-4)]Gal(b1-4)Glc
# Summary of the method: as §1
# [14] = molecular target: Neu5Ac(a2-8)Neu5Ac(a2-8)Neu5Ac(a2-8)Neu5Ac(a2-3)[GalNAc(b1-4)]Gal(b1-4)Glc
# Summary of the method: as §1
# [15] = molecular target: Neu5Ac(a2-8)Neu5Gc(a2-3)Gal(b1-4)GlcNAc
# Summary of the method: as §1
# [16] = molecular target: Neu5Ac(b2-6)Gal(b1-4)GlcNAc
# Summary of the method: as §1
# [17] = molecular target: Neu5Ac(b2-6)GalNAc
# Summary of the method: as §1
# [18] = molecular target: Neu5Ac9Ac(a2-3)Gal(b1-3)GlcNAc
# Summary of the method: as §1
# [19] = molecular target: Neu5Ac9Ac(a2-3)Gal(b1-4)GlcNAc
# Summary of the method: as §1
# [20] = molecular target: Neu5Ac9Ac(a2-6)Gal(b1-4)GlcNAc
# Summary of the method: as §1
# [21] = molecular target: Neu5Gc(a2-3)Gal(b1-3)GlcNAc
# Summary of the method: as §1
# [22] = molecular target: Neu5Gc(a2-3)Gal(b1-3)[Fuc(a1-4)]GlcNAc
# Summary of the method: as §1
# [23] = molecular target: Neu5Gc(a2-3)Gal(b1-4)Glc
# Summary of the method: as §1
# [24] = molecular target: Neu5Gc(a2-3)Gal(b1-4)GlcNAc
# Summary of the method: as §1
# [25] = molecular target: Neu5Gc(a2-3)Gal(b1-4)GlcNAc(b1-3)Gal(b1-4)GlcNAc(b1-2)Man(a1-3)[Neu5Gc(a2-3)Gal(b1-4)GlcNAc(b1-3)Gal(b1-4)GlcNAc(b1-2)Man(a1-6)]Man(b1-4)GlcNAc(b1-4)GlcNAc
# Summary of the method: as §1
# [26] = molecular target: Neu5Gc(a2-3)Gal(b1-4)[Fuc(a1-3)]GlcNAc
# Summary of the method: as §1
# [27] = molecular target: Neu5Gc(a2-6)Gal(b1-4)GlcNAc
# Summary of the method: as §1
# [28] = molecular target: Neu5Gc(a2-6)GalNAc
# Summary of the method: as §1
# [29] = molecular target: Neu5Gc(a2-8)Neu5Ac(a2-3)Gal(b1-4)GlcNAc
# Summary of the method: as §1
# [30] = molecular target: Neu5Gc(a2-8)Neu5Gc(a2-3)Gal(b1-4)GlcNAc
# Summary of the method: as §1
# [31] = molecular target: Neu5Gc(a2-8)Neu5Gc(a2-3)Gal(b1-4)GlcNAc(b1-3)Gal(b1-4)GlcNAc
# Summary of the method: as §1
# [32] = molecular target: Neu5Gc(a2-8)Neu5Gc(a2-6)Gal(b1-4)GlcNAc
# Summary of the method: as §1
# [33] = molecular target: Neu5Gc(b2-6)Gal(b1-4)GlcNAc
# Summary of the method: as §1
binder,measurement,setting,value
Mg1lysM (Mycosphaerella graminicola) (protein) QRNPITITPQFDCGATNSQQYVARSGDTLTKIAQEIYHDVVGVCDIARANNLADPNRIDAGTPYTIPINCQTYDRNSCL,glycan array binding signal (z-score),[1],-0.057
same,glycan array binding signal (z-score),[2],4.06
same,glycan array binding signal (z-score),[3],-0.063
same,glycan array binding signal (z-score),[4],-0.041
same,glycan array binding signal (z-score),[5],-0.048
same,glycan array binding signal (z-score),[6],-0.058
same,glycan array binding signal (z-score),[7],-0.068
same,glycan array binding signal (z-score),[8],-0.07
same,glycan array binding signal (z-score),[9],-0.067
same,glycan array binding signal (z-score),[10],-0.056
same,glycan array binding signal (z-score),[11],-0.069
same,glycan array binding signal (z-score),[12],-0.06
same,glycan array binding signal (z-score),[13],-0.072
same,glycan array binding signal (z-score),[14],-0.052
same,glycan array binding signal (z-score),[15],-0.052
same,glycan array binding signal (z-score),[16],-0.081
same,glycan array binding signal (z-score),[17],-0.076
same,glycan array binding signal (z-score),[18],-0.091
same,glycan array binding signal (z-score),[19],-0.075
same,glycan array binding signal (z-score),[20],-0.064
same,glycan array binding signal (z-score),[21],-0.04
same,glycan array binding signal (z-score),[22],-0.055
same,glycan array binding signal (z-score),[23],-0.07
same,glycan array binding signal (z-score),[24],-0.094
same,glycan array binding signal (z-score),[25],-0.08
same,glycan array binding signal (z-score),[26],-0.038
same,glycan array binding signal (z-score),[27],-0.038
same,glycan array binding signal (z-score),[28],-0.091
same,glycan array binding signal (z-score),[29],-0.069
same,glycan array binding signal (z-score),[30],-0.086
same,glycan array binding signal (z-score),[31],-0.075
same,glycan array binding signal (z-score),[32],-0.072
same,glycan array binding signal (z-score),[33],-0.078

# Source: the supplement of paper PMC8728848
